B1: LINE1-mini (parent)
chain: GGCAGAGCUCAACACAGCGUGGCAAAGUGGCUGUGGCUAGACUGCC

Here are results for 56 variants from the RNAGym collection of RNA variant scans (doi:10.7554/elife.90254).

Read counts are not given, so values of variants with three or more changes are uncertain.

Variants of B1 are the subject of the series. Description: self-cleavage, relative activity (ratio to wild type); higher = more cleavage; in vitro, sequencing; the parent is a self-cleaving ribozyme.
Take GGCAGCGCUCAAAUCAGCGUGGCAAAGUGGCUGUGUCGAGACUGCC [A6C C13A A14U G36U U38G]: the self-cleavage is 0.09. For the variant GGCAGCGCUUAACACAGCGUGGCAAAGUGGCUCUGGCUAGACUGCC [A6C C10U G33C], the self-cleavage is 0.01. For GGCAGCGCUCAACACAGCGUGGCAAUGUGGCUAUGGCUAGACUGCC [A6C A26U G33A], the self-cleavage was found to be 0.04. On to GGCAUAGCUCAACACAGCGAUGCAAAGUUGCUGUGGCUAGACUGCC [G5U U20A G21U G29U], for which the self-cleavage is 0.01. Regarding GGCAGCGCUCAAAACAGAGUGGCAAAGCGGCUGUGGCCAGACUGCC [A6C C13A C18A U28C U38C], the self-cleavage was 0.02. With GGCAUAGCCCAACACAGCGUGGCAAAGUGGCUGUGGGUAGACUGCC [G5U U9C C37G], the self-cleavage came out at 0.01.

With GGCAGCGCUCAACACAGCGUGGCUAAGUGGCUGUGGCUAUACUGCC [A6C A24U G40U], the self-cleavage turned out to be 0.34. As to GGCAGCGCUCAUCACAGCGUGGCAAAGUGGCUGUGACUAGACUGCC [A6C A12U G36A], the self-cleavage came to 0.03.

Take GGCAUAGCUCAACACAGCGUGGCAAAGUGGCUGUGUCUACACUGCC [G5U G36U G40C]: the self-cleavage amounted to 0.03. The same measure for GGCAGCGCUCAACACUGCGUGGCAAAGUGGCUGUGGCUAGACUGCU [A6C A16U C46U]: 0.07; for GGCAGCGCUAAACACAGCGUGGCAAAGUGGAUGUGGCUUGACUGCC [A6C C10A C31A A39U]: 0.02. Regarding GGCAUAGCUCAACACAGCGCGGCAAUGUGGCUGUGGCUAGACUGCC [G5U U20C A26U], the self-cleavage came out at 0.

As to GGCAUAGCUCAACACAGCGUGCGAAAGUGGCUGUGGCUAGACUGCC [G5U G22C C23G], the self-cleavage was 0.06. In the case of GGCAGCGCUCAACACUGCGUGGCAAAAUGGCUGUGGCUAGACUGCC [A6C A16U G27A], the self-cleavage came out at 0.37.

On to GGCAGCGCUCAACAUAUAGGGGCAAAGUGUCUGUGGCUAGACUGGC [A6C C15U G17U C18A U20G G30U C45G], for which the self-cleavage amounted to 0.03. The same measure for GGCAUAGCUCAACACAGCGUGGCAAAUAGGCUGUGGCUAGACUGCC [G5U G27U U28A]: 0.05; for GGCAGCGGUCAACACAGCGUGGCAAAGUCGCUGUGGCUAGACUGCC [A6C C8G G29C]: 0.05; for GGCAGCGCUCAACAGGUCGUGACUAAGUGGUUGUGGCUAGACUGCC [A6C C15G A16G G17U G22A A24U C31U]: 0.02. Turning to GGCAGCGCUCAACACAGGGUGGCAAAGUGGCUGUGGCUAGUCUCUC [A6C C18G A41U G44C C45U], the self-cleavage is 0.01. As for GGCAGCGCUAAACACAGCGUGGCAAAGUGGAUGUGGCUAGACUGCC [A6C C10A C31A], the self-cleavage is 0.04. For the variant GGCAGCGCUCAACAAAGCGUGGCAAAGUGGCUGUGGCUUGACUUCC [A6C C15A A39U G44U], the self-cleavage worked out at 0.05. As for GGCAGCGCUCAGCACAGCGUAGCAAAGUGGCUGUGGCUAGACUGCC [A6C A12G G21A], the self-cleavage stood at 0.05. With GGCAGCGCUGAACACAGCGUGGCAACGUGGCUGUUGCUAGACUGCC [A6C C10G A26C G35U], the self-cleavage was determined as 0.02. In the case of GGCAUAGCUCAACACAGCGUGGCAAAACGGCUGUGGCUAGACUGCC [G5U G27A U28C], the self-cleavage amounted to 0.02. Take GGCAUAGCCCAACACAGCGUCGCAAAGUGGCUGUGGUUAGACUGUC [G5U U9C G21C C37U C45U]: the self-cleavage came out at 0.01.

For the variant GGCAGCGCUCAAAACAGCGUGGGAAAGUGGCUAUGGCUAGACUGCC [A6C C13A C23G G33A], the self-cleavage was found to be 0.07. In the case of GGCAGCGCUCAACAUAGCGUGACUAAGUGGCUGUGGCUAGACUGCC [A6C C15U G22A A24U] it was 1.77. The same measure for GGCAGCGCUCAACACGGCGUGGCAAAGUGGCUGUGGCUAGACAGCC [A6C A16G U43A]: 0.03. On to GGCAGCGCUCAACCCAGCGUGGCAAAGUGCCUGUGUCUAGACUGCC [A6C A14C G30C G36U], for which the self-cleavage came out at 0.05. Consider GGCAGCGCUCAUCACAGCGUGGCAGAGUGACUGUGGCUAGACUGCC [A6C A12U A25G G30A], for which the self-cleavage came out at 0.09. The same measure for GGCAUAGCUCAACACAGCGUGGCAAAGUGGCUGUGUCUAGAGUGCC [G5U G36U C42G]: 0; for GGCAGCGCUCAACACUGUGUGGCAAAGUGGCUGUGGCUAGACUGAC [A6C A16U C18U C45A]: 0.04; for GGCAGCGCUCAACCCAGCCUGGCAACGUGGCUGUGGCUAGAUUGCC [A6C A14C G19C A26C C42U]: 0.

Consider GGCAGCGAUCAUCACAGCGUGGCAAAGUGGCUGUGGUAAGACUGCC [A6C C8A A12U C37U U38A], for which the self-cleavage came to 0.04. As for GGCAUAGCUCAACACAGCGUGGCAAAGUGGCUGUAGCGAGACUGCC [G5U G35A U38G], the self-cleavage came to 0.01.

For the variant GGCAGCGCUCUACACAGCGUGUCAAAGUGGCUGUCGCUAGACUGCC [A6C A11U G22U G35C], the self-cleavage worked out at 0.01. Regarding GGCAUAGCUCAACACAGCGUGGCAAAGUGGCUUAGGCUAGACUGCA [G5U G33U U34A C46A], the self-cleavage stood at 0.02. As to GGCAUAGCUCAACACAGCGUGGCAAAGUGCCUGUGGUUAGACUGCC [G5U G30C C37U], the self-cleavage was found to be 0.03. On to GGCAGCGCUCAACCCAGCGUGACAAAGUGGCUGUGGGUAGACUUCC [A6C A14C G22A C37G G44U], for which the self-cleavage was determined as 0.22. Take GGCAUAGCUCAACACAGCGUGGCAAAGGGGCUGUGGCUCGACUGGC [G5U U28G A39C C45G]: the self-cleavage stood at 0. As for GGCAGCGCUCAGCACAGCGUGGCUAAGUGGCUGUGGCAAGACUGCC [A6C A12G A24U U38A], the self-cleavage is 0.01. As for GGCAUAGCUCAACACAGCGCGGCAAAGUGGCUGUGGCUAGGCUGCC [G5U U20C A41G], the self-cleavage was determined as 0.21. As to GGCAUAGCUCAACACAGCGCGGCAAAGUGGCUGUGGCUAGUCUGCC [G5U U20C A41U], the self-cleavage is 0.03. Turning to GGCAUAGCUCAACACAGCGCGGCAAAGUGGCUGUGGCUAGACUGUC [G5U U20C C45U], the self-cleavage is 0.02. For the variant GGCAGCGCUAAAUACAGCGUGGCAAAGUGGCUGUGGCUAGACUGCC [A6C C10A C13U], the self-cleavage was 0.02. For the variant GGCAGCGCUCAAGACAGCGUGGCAAAGUGGCUGUGUCUAGACUGCC [A6C C13G G36U], the self-cleavage was determined as 0.05. The same measure for GGCAUAGCUCAACACAGCGUGGCAAAGUGACUGUUGCUAGACUGUC [G5U G30A G35U C45U]: 0.05; for GGCAUAGCUCAACACAGCGUGGCAAAGUCGCUGUGGCUAGAAUGCG [G5U G29C C42A C46G]: 0.14; for GGCAUAGCCCAACACAGCGUGGCAAAAUGGCUGUGGCUAGACUGCC [G5U U9C G27A]: 0.

Turning to GGCAGCGCUCAACAUAGCGUGGCGAAGUGGCUGUGGCUAGACUGCC [A6C C15U A24G], the self-cleavage is 0.21.

For the variant GGCAUAGCACAACACAGCGUGGCAAAGUAGCUGUGGCUAGACCGCC [G5U U9A G29A U43C], the self-cleavage came to 0.01. Consider GGCAUAGCUCAACACAGCGUGGCAAAGUGCCUGUGGCUCAACUGCC [G5U G30C A39C G40A], for which the self-cleavage stood at 0.03. The same measure for GGCAGCGCUCAACUCAGCGCGGCAAAGUGGCUGUGGCCAGACUGCC [A6C A14U U20C U38C]: 0.02; for GGCAGCGCUCAACGCGGCGUGGCAAAGUGGCUGUGGCUAGACUGCC [A6C A14G A16G]: 0.05; for GGCAGCGAUCAACACAGAGUGGCAAAGUGGCUGUGGCUAGACUGCC [A6C C8A C18A]: 0.18. With GGCAGCGCUAAAGAAAGCGUGGCAAAGUGGCUGUGGCUAGACUGCC [A6C C10A C13G C15A], the self-cleavage amounted to 0.02.
